From the supplement of paper PMC8728848
This is one part of the list.

Experiments:
Assay in all cases: glycan array binding signal (z-score within array); higher = stronger binding
Conditions in all cases: glycan notation: IUPAC condensed, linker removed
[1] = biological target: Neu5Ac(a2-6)Gal(b1-4)GlcNAc(b1-2)Man(a1-6)[Gal(b1-4)GlcNAc(b1-2)Man(a1-3)]Man(b1-4)GlcNAc(b1-4)GlcNAc
In short: (§1)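 The binding signal is a Z-score computed within each array. Data were drawn from 3228 arrays in the Consortium for Functional Glycomics database, restricted to those with a known protein sequence. Scores were averaged over arrays of the same protein sequence at different concentrations or buffers, and over linkers, and negative values can be taken as non-binding.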

[2] = biological target: Neu5Ac(a2-6)Gal(b1-4)GlcNAc(b1-2)Man(a1-6)[GlcNAc(b1-2)Man(a1-3)]Man(b1-4)GlcNAc(b1-4)GlcNAc
In short: as §1

[3] = biological target: Neu5Ac(a2-6)Gal(b1-4)GlcNAc(b1-2)Man(a1-6)[Man(a1-3)]Man(b1-4)GlcNAc(b1-4)GlcNAc
In short: as §1

[4] = biological target: Neu5Ac(a2-6)Gal(b1-4)GlcNAc(b1-3)Gal(b1-3)GlcNAc
In short: as §1

[5] = biological target: Neu5Ac(a2-6)Gal(b1-4)GlcNAc(b1-3)Gal(b1-4)GlcNAc
In short: as §1

[6] = biological target: Neu5Ac(a2-6)Gal(b1-4)GlcNAc(b1-3)Gal(b1-4)GlcNAc(b1-3)Gal(b1-4)GlcNAc
In short: as §1

[7] = biological target: Neu5Ac(a2-6)Gal(b1-4)GlcNAc(b1-3)Gal(b1-4)[Fuc(a1-3)]GlcNAc(b1-3)Gal(b1-4)[Fuc(a1-3)]GlcNAc
In short: as §1

[8] = biological target: Neu5Ac(a2-6)Gal(b1-4)GlcNAc(b1-3)GalNAc
In short: as §1

[9] = biological target: Neu5Ac(a2-6)Gal(b1-4)GlcNAc6S
In short: as §1

Neu5Ac(a2-6)GalNAc = biological target: Neu5Ac(a2-6)GalNAc
In short: as §1

[10] = biological target: Neu5Ac(a2-6)GalNAc(b1-4)GlcNAc
In short: as §1

[11] = biological target: Neu5Ac(a2-6)GlcNAc(b1-4)GlcNAc
In short: as §1

[12] = biological target: Neu5Ac(a2-6)GlcNAc(b1-4)GlcNAc(b1-4)GlcNAc
In short: as §1

Neu5Ac(a2-8)Neu5Ac = biological target: Neu5Ac(a2-8)Neu5Ac
In short: as §1

[13] = biological target: Neu5Ac(a2-8)Neu5Ac(a2-3)Gal(b1-3)GalNAc(b1-4)[Neu5Ac(a2-8)Neu5Ac(a2-3)]Gal(b1-4)Glc
In short: as §1

[14] = biological target: Neu5Ac(a2-8)Neu5Ac(a2-3)Gal(b1-4)Glc
In short: as §1

[15] = biological target: Neu5Ac(a2-8)Neu5Ac(a2-3)[Gal(b1-3)GalNAc(b1-4)]Gal(b1-4)Glc
In short: as §1

[16] = biological target: Neu5Ac(a2-8)Neu5Ac(a2-3)[GalNAc(b1-4)]Gal(b1-4)Glc
In short: as §1

[17] = biological target: Neu5Ac(a2-8)Neu5Ac(a2-8)Neu5Ac
In short: as §1

[18] = biological target: Neu5Ac(a2-8)Neu5Ac(a2-8)Neu5Ac(a2-3)Gal(b1-4)Glc
In short: as §1

[19] = biological target: Neu5Ac(a2-8)Neu5Ac(a2-8)Neu5Ac(a2-3)[GalNAc(b1-4)]Gal(b1-4)Glc
In short: as §1

[20] = biological target: Neu5Ac(a2-8)Neu5Ac(a2-8)Neu5Ac(a2-8)Neu5Ac(a2-3)[GalNAc(b1-4)]Gal(b1-4)Glc
In short: as §1

[21] = biological target: Neu5Ac(b2-6)Gal(b1-4)GlcNAc
In short: as §1

Neu5Ac(b2-6)GalNAc = biological target: Neu5Ac(b2-6)GalNAc
In short: as §1

[22] = biological target: Neu5Ac9Ac(a2-3)Gal(b1-3)GlcNAc
In short: as §1

[23] = biological target: Neu5Ac9Ac(a2-3)Gal(b1-4)GlcNAc
In short: as §1

[24] = biological target: Neu5Ac9Ac(a2-6)Gal(b1-4)GlcNAc
In short: as §1

[25] = biological target: Neu5Gc(a2-3)Gal(b1-3)GlcNAc
In short: as §1

[26] = biological target: Neu5Gc(a2-3)Gal(b1-3)[Fuc(a1-4)]GlcNAc
In short: as §1

Neu5Gc(a2-3)Gal(b1-4)Glc = biological target: Neu5Gc(a2-3)Gal(b1-4)Glc
In short: as §1

[27] = biological target: Neu5Gc(a2-3)Gal(b1-4)GlcNAc
In short: as §1

[28] = biological target: Neu5Gc(a2-3)Gal(b1-4)[Fuc(a1-3)]GlcNAc
In short: as §1

[29] = biological target: Neu5Gc(a2-6)Gal(b1-4)GlcNAc
In short: as §1

Neu5Gc(a2-6)GalNAc = biological target: Neu5Gc(a2-6)GalNAc
In short: as §1

[30] = biological target: Neu5Gc(b2-6)Gal(b1-4)GlcNAc
In short: as §1

B1: RS2L (Ralstonia solanacearum), B5RXL5_RALSO (protein)
chain: MAQQGVFTLPANTSFGVTAFANAANTQTIQVLVDNVVKATFTGSGTSDKLLGSQVLNSGSGAIKIQVSVNGKPSDLVSNQTILANKLNFAMVGSEDGTDNDYNDGIAVLNWPLG
- glycan array binding signal (z-score) [1]: -0.237
- glycan array binding signal (z-score) [2]: -0.237
- glycan array binding signal (z-score) [3]: 2.97
- glycan array binding signal (z-score) [4]: -0.251
- glycan array binding signal (z-score) [5]: -0.244
- glycan array binding signal (z-score) [6]: -0.232
- glycan array binding signal (z-score) [7]: -0.052
- glycan array binding signal (z-score) [8]: -0.19
- glycan array binding signal (z-score) [9]: -0.243
- glycan array binding signal (z-score) (Neu5Ac(a2-6)GalNAc): -0.244
- glycan array binding signal (z-score) [10]: -0.242
- glycan array binding signal (z-score) [11]: -0.243
- glycan array binding signal (z-score) [12]: -0.252
- glycan array binding signal (z-score) (Neu5Ac(a2-8)Neu5Ac): -0.24
- glycan array binding signal (z-score) [13]: -0.245
- glycan array binding signal (z-score) [14]: -0.247
- glycan array binding signal (z-score) [15]: -0.233
- glycan array binding signal (z-score) [16]: -0.245
- glycan array binding signal (z-score) [17]: -0.243
- glycan array binding signal (z-score) [18]: -0.245
- glycan array binding signal (z-score) [19]: -0.252
- glycan array binding signal (z-score) [20]: -0.22
- glycan array binding signal (z-score) [21]: -0.252
- glycan array binding signal (z-score) (Neu5Ac(b2-6)GalNAc): -0.248
- glycan array binding signal (z-score) [22]: -0.242
- glycan array binding signal (z-score) [23]: -0.257
- glycan array binding signal (z-score) [24]: -0.244
- glycan array binding signal (z-score) [25]: -0.243
- glycan array binding signal (z-score) [26]: -0.202
- glycan array binding signal (z-score) (Neu5Gc(a2-3)Gal(b1-4)Glc): -0.245
- glycan array binding signal (z-score) [27]: -0.242
- glycan array binding signal (z-score) [28]: -0.235
- glycan array binding signal (z-score) [29]: -0.245
- glycan array binding signal (z-score) (Neu5Gc(a2-6)GalNAc): -0.235
- glycan array binding signal (z-score) [30]: -0.242
